Source: article PMC10726135
This is one part of the list. At the low end of the ranking the order means little. The protein was read in a cell extract, so binding may be indirect.

What follows are sequences tested against T1, HNF4alpha8 (COS-7 nuclear extract) (UniProt P41235-5) (assay: protein-binding microarray). Settings: COS-7 nuclear extract on double-stranded Agilent 4x180k PBM; binding buffer, salt, pH and temperature not given; high values mean tight binding; double strand, one strand shown; sequences stand for … in …GCCTAGGGAGATTAGAGTATCGGTCGA.
T1 sequence: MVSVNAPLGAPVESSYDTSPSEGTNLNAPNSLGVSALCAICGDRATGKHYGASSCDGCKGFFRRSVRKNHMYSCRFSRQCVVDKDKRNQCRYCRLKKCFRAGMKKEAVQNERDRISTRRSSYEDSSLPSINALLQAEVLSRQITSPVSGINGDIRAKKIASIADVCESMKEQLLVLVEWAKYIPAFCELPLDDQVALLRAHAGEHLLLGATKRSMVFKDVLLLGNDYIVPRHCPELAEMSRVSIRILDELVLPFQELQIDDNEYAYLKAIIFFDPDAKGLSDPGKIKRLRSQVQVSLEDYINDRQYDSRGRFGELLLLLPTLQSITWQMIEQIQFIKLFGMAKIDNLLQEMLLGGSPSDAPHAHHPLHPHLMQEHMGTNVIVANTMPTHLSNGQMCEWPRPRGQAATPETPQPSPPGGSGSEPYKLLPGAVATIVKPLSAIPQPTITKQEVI
GACCTGCAAACAGCACTCTCTGATTACACA gave a binding signal (log2 normalized intensity) of -1.32.
CTTCAGATGCCATGTCTAAAGGCTGTGTCG was tested, and the binding signal (log2 normalized intensity) was 1.09.
GTCCCTGCCCTTTGTCCAGGGTGAGAGGGA gave a binding signal (log2 normalized intensity) of 2.24.
For AGGTTGTACTATGACCCAAACTTCACAAAA, the binding signal (log2 normalized intensity) was 2.99.
GGGGCAAAGTTTATGTGTGAGCCTATAATT showed a binding signal (log2 normalized intensity) of 1.65.
TGTTCCACCCAGGGTGGCAGGCTCTGCAAA gave a binding signal (log2 normalized intensity) of -1.29.
In the case of GAAGCAAGTGTTTAACTCTTTATCTTTCTC, the binding signal (log2 normalized intensity) is reported as 1.58.
ACCATAAGAGGCTCTAGATCTCAAAGTCCA gave a binding signal (log2 normalized intensity) of 4.86.
TCTGTCCCTGCACCCTACCCCCATACTTTA gave a binding signal (log2 normalized intensity) of 3.87.
Work on GAGACACCCCTGCAGAAGCGGGAGAGGCCC yielded a binding signal (log2 normalized intensity) of -1.35.
GCCACATTCCCCGACTCCTGGGTGTGAGAT showed a binding signal (log2 normalized intensity) of 0.782.
For CTGTGCTTTCTAAAGTATGTGGTGGGTGTG, the binding signal (log2 normalized intensity) was 2.04.
AGAGCTCCAGAAGAAAGGGGAGATAATGCC gave a binding signal (log2 normalized intensity) of -1.29.
Sequence ATCTGACCAAGTGAACTGTGACCTGATGAC has a binding signal (log2 normalized intensity) of 3.91.
In the case of TACAGGCAAGAGAATCAGAGAGATACTGAA, the binding signal (log2 normalized intensity) is reported as -1.18.
Sequence GGGGGCTGTTTATGGGTTAACAGAATGAAC has a binding signal (log2 normalized intensity) of 1.49.
Work on GAAACATTTTACAACCTACTCTTTCTCTGA yielded a binding signal (log2 normalized intensity) of -1.42.
TCAGATTGCCTAAAGGGGATTTTCTCAGCT was tested, and the binding signal (log2 normalized intensity) was -1.31.
With AAAGCAGTGAGTGAAACATCCCACTCAAAG the binding signal (log2 normalized intensity) was -1.22.
Work on ACACAAACTATGACCTTTGAAACTTACATT yielded a binding signal (log2 normalized intensity) of 6.68.
GGGTTATGGAGAGTGGAAGACTGCACCAAA gave a binding signal (log2 normalized intensity) of -1.39.
GTCCAGAGTTTAAATGACCTCTGCCCTTCC was tested, and the binding signal (log2 normalized intensity) was 7.43.
Work on TAAGAAATGAATGTCACTTTCTGACTGGCC yielded a binding signal (log2 normalized intensity) of 0.556.
With ATCTACCATTAGTCTCCAATATATTTGCCT the binding signal (log2 normalized intensity) was 0.00427.
TAATCTGATCGCCCTCCCCCAGAGAGAACA was tested, and the binding signal (log2 normalized intensity) was 5.05.
Work on GTGCAGCTGCTGAAACATTCAACTGACACT yielded a binding signal (log2 normalized intensity) of -1.42.
For AGTCCACAGTCCAGTGACTATCTGCTACTT, the binding signal (log2 normalized intensity) was -0.899.
GGCTGGAGCAGGCCATGTGCAGAGGAGGGG gave a binding signal (log2 normalized intensity) of -1.21.
GAGTCCAGTGGGGGAGAGGGAGAATAAGGG gave a binding signal (log2 normalized intensity) of -1.38.
Work on CTTGTTTGTGTAACTGTGGGTTCTAGGTAA yielded a binding signal (log2 normalized intensity) of 1.62.
In the case of TCTGCTTTCAAAGCTCCAGTTCCAGGGATG, the binding signal (log2 normalized intensity) is reported as -1.35.
Work on GCGGTAAAGAAGCCAGCCAAATCCCACCAA yielded a binding signal (log2 normalized intensity) of 2.27.
GCCAAGGACCGCCAAGGAAGCGATGGGCTG was tested, and the binding signal (log2 normalized intensity) was -1.31.
Sequence GGCCTTATAGGGCATACCCTTCCTGCTGAC has a binding signal (log2 normalized intensity) of -1.26.
CCGCAGTGGGAGAGCAAGGGTCAAGGGTCA gave a binding signal (log2 normalized intensity) of 7.52.
ACTAATGCATTCCCAGCAAGTGAAGAGGAA was tested, and the binding signal (log2 normalized intensity) was -1.41.
With TATCTAAAAGCTTATCTGCACAATGAAACT the binding signal (log2 normalized intensity) was -1.43.
TGTGTTGGCACTTTGGACTTGAGAAGACAT gave a binding signal (log2 normalized intensity) of 4.01.
GAACCTGTGTTTCCTGGATTGTGAAACACA was tested, and the binding signal (log2 normalized intensity) was 0.783.
In the case of CAATCAGCAGCAAAGTCCTGGAAGAAACCC, the binding signal (log2 normalized intensity) is reported as -1.25.
GAATGGACTCTGAGACCTGTGATGGTCACT showed a binding signal (log2 normalized intensity) of 1.83.
CACACCTCCAGCCACCCTGAAGGCTGAGCC was tested, and the binding signal (log2 normalized intensity) was -1.31.
AGTAGCAGTTCAAAAGTTCAAAGATATGAT was tested, and the binding signal (log2 normalized intensity) was 1.64.
TCAGGCCATTTCACCTTTGCCCTGTCAGTC gave a binding signal (log2 normalized intensity) of 6.79.
With AACAAATAAAGTGGATGGAGCAATTCAACA the binding signal (log2 normalized intensity) was -0.882.
For TTCTGATCTTTGACCTCTCCAGGGTCCTTG, the binding signal (log2 normalized intensity) was 5.35.
With GACCTGGCATATCTCTGTCCCTGATACCAT the binding signal (log2 normalized intensity) was 0.0233.
For CTTCCCCCATCCCCAACAAAGCTCTGCATC, the binding signal (log2 normalized intensity) was 4.72.
CATGGGTCTCTTCCTCAGTTTGTTCTTGGG gave a binding signal (log2 normalized intensity) of 1.61.
Work on AATGCTATGCTTTTATTTAACTTCTGGGGG yielded a binding signal (log2 normalized intensity) of -0.243.
With CAAGTAAATTCCGGGGCTGGAATTTGAACC the binding signal (log2 normalized intensity) was 5.93.
CTCCCCTCCTCCAGATGGGCTCATGTAACA showed a binding signal (log2 normalized intensity) of 2.65.
TTGCCACTAGGGGTCACTGTCACATGTCCA gave a binding signal (log2 normalized intensity) of 3.07.
CAAACGAGACTTTGGACTTTGGACTTGGGA gave a binding signal (log2 normalized intensity) of 10.9.
In the case of ATTCCAAGAAGAGCCAATAGTACACATCAA, the binding signal (log2 normalized intensity) is reported as -1.32.
For AGTTTGTCTGATCTTCCTGAGGAGAGCAAA, the binding signal (log2 normalized intensity) was -1.18.
TTGTGTAACATCTAAGATTGGCCCTGATAA gave a binding signal (log2 normalized intensity) of 1.08.
CCTCCCCATTGTAGATTCAATAATACAAGA gave a binding signal (log2 normalized intensity) of 1.11.
With CCAGAGAAATAGTGAGACAGACATGCGACA the binding signal (log2 normalized intensity) was -1.37.
TTGTTTGTGTTTCCCTCCCTGGTATGTACT gave a binding signal (log2 normalized intensity) of 2.75.
GAACAAGTATCCTGGTAGTGCGACAAGAAT gave a binding signal (log2 normalized intensity) of 0.149.
With ATTCTACTGCCATTGATAATTCAGTTTCAT the binding signal (log2 normalized intensity) was -0.495.
With TGTTGCGTAATACAAAGGCAGCCATTGACG the binding signal (log2 normalized intensity) was -1.29.
TCGCTCCGCCGCTAGGTGGCGGGCTGGCTC showed a binding signal (log2 normalized intensity) of -1.42.
TAAACAGCTGACAATAAATTCCAGGCTGCC showed a binding signal (log2 normalized intensity) of -1.26.
Sequence ACACATAAACCCTGACCCTCAAGGGTCTCC has a binding signal (log2 normalized intensity) of 1.78.
Sequence AAGTACAGAGATGGCACAGAGGAGGGACGA has a binding signal (log2 normalized intensity) of -1.35.
Sequence CCTTTTGAAGAAACCAACCCTGCCAAAGGT has a binding signal (log2 normalized intensity) of 1.45.
CTGGGTATTTCAAGAATGCAAAGCCCTGGC was tested, and the binding signal (log2 normalized intensity) was -1.01.
With TTTCATTGGAAAGGCAGAGGAAAGCCCTAG the binding signal (log2 normalized intensity) was -1.27.
In the case of TGGGTGTCAGGGTTCTCAGACCACCAGCTG, the binding signal (log2 normalized intensity) is reported as -1.4.
With ACAAGAGGCAAAGGCCACAGCTCAGATCAC the binding signal (log2 normalized intensity) was -1.28.
